# Measured values from PubChem BioAssay (Tox21).
# Values joined by “and” are separate entries in the source; they are usually repeats but may differ in a detail not shown here. Equal values may be shown once. The shares of active, inactive and inconclusive entries below differ from those in the screen. For some of these results: A potency beside an inconclusive call is a rough fit, not a confirmed value. Active and inactive are the calls of the source. Unless noted, the call rests on the fitted dose curve; in most records, active means well fitted curve in the direction sought with a large enough effect in the repeat runs; inconclusive means weak or mixed curves; inactive means no such curve, though single readings can be large; an effect the other way counts as inactive or inconclusive.
# Key:
# [1] = qHTS RealTime-Glo MT Cell Viability Assay in HepG2 cells - 16 hour (AID 1224885); further: potency means the concentration at half of the fitted maximal effect; nearly all actives have a fitted effect of over 50% in size
# Summary of the method: (§1)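 Tox21 10K library screened in qHTS format on HepG2 cells carrying RealTime-Glo reagents. Compounds were added after a 5 h preincubation, and the luminescent signal from continuous culture was measured repeatedly during 40 h treatment.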
# [2] = target: Estrogen receptor (Homo sapiens) (UniProt P03372); assay: qHTS assay to identify small molecule antagonists of the estrogen receptor alpha (ER-alpha) signaling pathway using the BG1 cell line in the presence of 0.1 nM 17-beta-estradiol (AID 1259244); further: on the % scale 0 is the no-effect control and ±100 the full control effect; nearly all actives have a fitted effect of over 50% in size
# Summary of the method: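 Estradiol at 0.1 nM (final) stimulates the endogenous ER-alpha of VM7Luc4E2 cells carrying an ERE-driven luciferase; compounds are co-incubated 22 h at 37C and luciferase output quantified by luminescence.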
# [3] = qHTS RealTime-Glo MT Cell Viability Assay in HEK293 cells - 24 hour (AID 1224886); further: nearly all actives have a fitted effect of over 50% in size; further: potency means the concentration at half of the fitted maximal effect; on activity change, negative = cytotoxicity: top concentration of the series differs between compounds; on the % scale 0 is the no-effect control and ±100 the full control effect
# Summary of the method: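 Luminescence generated by NanoLuc from substrate produced by living HEK293 cells served as the viability signal. Each value reflects the reading at its stated time point during continuous 40 h compound exposure at 37 C.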
# [4] = qHTS RealTime-Glo MT Cell Viability Assay in HEK293 cells - 8 hour (AID 1224887); further: nearly all actives have a fitted effect of over 50% in size; further: potency means the concentration at half of the fitted maximal effect; on activity change, negative = cytotoxicity: top concentration of the series differs between compounds; on the % scale 0 is the no-effect control and ±100 the full control effect
# Summary of the method: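 Viable HEK293 cells reduce a cell-permeant prosubstrate; the product diffuses out and is consumed by NanoLuc in the medium to give light. Compounds went in after a 5 h incubation and plates were read over the treatment course.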
# [5] = A CellTox Green Cytotoxicity Assay to monitor cytotoxicity in HepG2 cells - 8 hour (AID 1224890); further: nearly all actives have a fitted effect of over 45% in size; further: potency means the concentration at half of the fitted maximal effect
# Summary of the method: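 Using 1536-well format, dye-containing HepG2 suspension was seeded, allowed 5 h at 37 C/5% CO2, dosed by pintool with compounds, positive and negative controls, and imaged for fluorescence across 40 h.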
# [6] = qHTS assay to identify small molecule agonists of the sonic hedgehog signaling (Shh) pathway - cell viability counter screen (AID 1259366)
# Summary of the method: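 Viability measured fluorometrically (CellTiter-Fluor, 1hr, 37C) in 3T3 Gli1-Luc reporter cells after 23hr compound exposure within a 24hr incubation at 37C/5% CO2.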
# [7] = qHTS RealTime-Glo MT Cell Viability Assay in HepG2 cells - 0 hour (AID 1224889)
# Summary of the method: as §1
# [8] = A CellTox Green Cytotoxicity Assay to monitor cytotoxicity in HEK293 cells - 16 hour (AID 1224888); further: nearly all actives have a fitted effect of over 35% in size; further: potency means the concentration at half of the fitted maximal effect; on activity change: on the % scale 0 is the no-effect control and ±100 the full control effect
# Summary of the method: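 Fluorescence intensity, read at 0, 8, 16, 24, 32 and 40 h of compound treatment, reflected dye binding to DNA of dead HEK293 cells; compounds (23 nL, DMSO) were added 5 h after plating cells with reagent.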
# [9] = qHTS assay to identify small molecule HDAC inhibitors (AID 1259364);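 further: wild-type HCT-116 cells with endogenous class I/II HDAC activity; potency means the concentration at half of the fitted maximal effect; nearly all actives have a fitted effect of over 45% in size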
# Summary of the method: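 Read-out: luminescence of HDAC-Glo I/II reagent, 30 min RT, reflecting class I/II deacetylase activity in whole HCT-116 cells pre-exposed 2 h to DMSO-dissolved compounds.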
# [10] = qHTS assay to identify small molecule antagonists of the sonic hedgehog signaling (Shh) pathway - cell viability counter screen (AID 1259367); further: potency means the concentration at half of the fitted maximal effect; nearly all actives have a fitted effect of over 55% in size
# Summary of the method: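 NIH/3T3-derived Gli1-Luc reporter cells, 2,000/well, plated 4 hr before compound addition, then stimulated with conditioned medium for 24 hr at 37C. Viability measured in the same wells by CellTiter-Fluor fluorescence, reagent added at 23 hr for 1 hr.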
# [11] = qHTS assay to identify small molecule antagonists of the estrogen receptor alpha (ER-alpha) signaling pathway using the BG1 cell line in the presence of 0.1 nM 17-beta-estradiol - cell viability counter screen (AID 1259241); further: potency means the concentration at half of the fitted maximal effect; nearly all actives have a fitted effect of over 40% in size
# Summary of the method: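 The cell line endogenously expresses full-length ER-alpha and carries four EREs driving luciferase. Cells are cultured 5 days hormone-free, treated 22 hr with compounds and 0.1 nM estradiol, then viability is read by fluorescence.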
# [12] = qHTS assay to identify small molecule antagonists of the androgen receptor (AR) signaling pathway using the MDA cell line in the presence of 0.5 nM R1881 - cell viability counter screen (AID 1259242); further: potency means the concentration at half of the fitted maximal effect; nearly all actives have a fitted effect of over 45% in size
# Summary of the method: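 Viability of MDA-kb2 cells was multiplexed with the luciferase AR readout; after 16 hr with compounds and R1881 at 0.5 nM final, CellTiter-Fluor fluorescence was recorded.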
# [13] = qHTS assay to identify small molecule antagonists of the sonic hedgehog signaling (Shh) pathway (AID 1259369; calls by dose curve; further: potency means the concentration at half of the fitted maximal effect; nearly all actives have a fitted effect of over 45% in size)
# Summary of the method: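 For antagonist detection, the reporter line received test compounds together with conditioned medium, incubated 24hr at 37 C, 5% CO2, then luminescence was recorded following 30min room-temperature luciferase reagent incubation.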
# [14] = target: Estrogen receptor beta (Homo sapiens) (UniProt Q92731); assay: qHTS assay to identify small molecule agonists of the estrogen receptor beta (ER-beta) signaling pathway (AID 1259377; active means well fitted activation curve with a large enough effect in the signal ratio in the repeat runs, not every such curve was filed as active; inconclusive means weak or mixed curves, or effect the other way; the % refers to the signal ratio; further: potency means the concentration at half of the fitted maximal effect); conditions: ER-beta-UAS-bla HEK293T, beta-lactamase FRET ratio, 16 h; activation: at 92.4 µM (top of the series) unless noted
# Summary of the method: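 A UAS-controlled beta-lactamase reporter in ER-beta-UAS-bla HEK293T cells reports receptor activation. Compounds act for 16 hr at 37C in 2% charcoal-stripped serum, and a FRET substrate is read by fluorescence after 2 hours.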
# [15] = qHTS assay to identify small molecule agonists of the sonic hedgehog signaling (Shh) pathway (AID 1259368; calls by dose curve; further: potency means the concentration at half of the fitted maximal effect; nearly all actives have a fitted effect of over 15% in size)
# Summary of the method: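 A Gli1 transcriptional response element controlled firefly luciferase in 3T3Gli1-Luc cells. Compounds and a positive control were added 4 hr after plating, and cells were incubated a further 24 hr at 37 C before luminescence detection.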
# Tags describe the fitted curve by direction and shape or compound fluorescence and quenching.
# Chain of UniProt P03372 (P03372 whole entry, looked up): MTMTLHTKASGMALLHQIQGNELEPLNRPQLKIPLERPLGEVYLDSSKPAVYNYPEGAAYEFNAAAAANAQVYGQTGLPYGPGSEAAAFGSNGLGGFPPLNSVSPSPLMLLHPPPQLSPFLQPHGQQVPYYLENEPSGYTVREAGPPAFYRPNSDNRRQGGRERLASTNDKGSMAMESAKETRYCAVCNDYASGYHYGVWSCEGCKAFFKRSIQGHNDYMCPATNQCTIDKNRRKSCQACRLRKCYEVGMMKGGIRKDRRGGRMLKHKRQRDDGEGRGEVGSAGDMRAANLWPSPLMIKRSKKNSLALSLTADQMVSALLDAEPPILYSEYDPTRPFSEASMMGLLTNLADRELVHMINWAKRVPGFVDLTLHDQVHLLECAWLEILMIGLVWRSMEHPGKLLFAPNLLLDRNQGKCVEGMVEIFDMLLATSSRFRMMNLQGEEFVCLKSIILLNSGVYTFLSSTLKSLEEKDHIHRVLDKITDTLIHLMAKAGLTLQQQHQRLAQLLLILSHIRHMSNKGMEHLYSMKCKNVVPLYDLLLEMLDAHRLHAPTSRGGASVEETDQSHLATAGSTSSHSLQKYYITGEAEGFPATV
# Chain of UniProt Q92731 (Q92731 whole entry, looked up): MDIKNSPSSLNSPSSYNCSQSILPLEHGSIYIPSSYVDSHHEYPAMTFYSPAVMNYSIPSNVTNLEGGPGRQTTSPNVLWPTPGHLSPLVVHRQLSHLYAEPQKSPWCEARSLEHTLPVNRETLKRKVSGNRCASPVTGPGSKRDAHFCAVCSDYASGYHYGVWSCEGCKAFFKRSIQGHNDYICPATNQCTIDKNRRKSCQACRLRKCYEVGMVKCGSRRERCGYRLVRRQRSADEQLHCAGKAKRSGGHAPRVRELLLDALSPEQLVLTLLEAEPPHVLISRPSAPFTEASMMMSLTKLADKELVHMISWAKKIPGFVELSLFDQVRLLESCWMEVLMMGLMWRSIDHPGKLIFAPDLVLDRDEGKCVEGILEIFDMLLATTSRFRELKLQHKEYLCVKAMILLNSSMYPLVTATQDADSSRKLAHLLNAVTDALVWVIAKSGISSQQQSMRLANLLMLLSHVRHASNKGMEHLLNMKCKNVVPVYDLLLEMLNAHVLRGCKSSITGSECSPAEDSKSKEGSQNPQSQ
smiles,measurement,setting,value
COc1cc(S(=O)(=O)Nc2ccccc2)c(OC)cc1N,Potency,[1],"inconclusive: 17.4 µM [cytotoxic, partial curve]"
same,Potency,[2],inactive
C1OCOCO1,Potency,[3],inactive
O=C(CS)Nc1ccccc1,Potency,[3],inactive
same,Potency,[4],inactive
COc1nccnc1NS(=O)(=O)c1ccc(N)cc1,Potency,[3],inactive
O=C(C(=O)c1ccco1)c1ccco1,Potency,[3],"inconclusive: 39.2 µM [rising, partial curve]"
same,Potency,[4],"inconclusive: 22.1 µM [rising, partial curve]"
O[Si](c1ccccc1)(c1ccccc1)c1ccccc1,Potency,[3],"inconclusive: 38.9 µM [cytotoxic, partial curve]"
same,Potency,[4],"inconclusive: 38.9 µM [cytotoxic, partial curve, poor fit]"
same,Potency,[5],inactive
same,Potency,[6],inconclusive: 68.6 µM [cytotoxic]
CNS(=O)(=O)CCc1ccc2[nH]cc(C3CCN(C)CC3)c2c1,Potency,[3],inactive
same,Potency,[4],inactive
Cc1cccc2cccnc12,Potency,[3],inactive
CCCc1nc2c(C)cc(-c3nc4ccccc4n3C)cc2n1Cc1ccc(-c2ccccc2C(=O)O)cc1,Potency,[3],"inconclusive: 23.9 µM [cytotoxic, partial curve]"
same,Potency,[4],"inconclusive: 21.3 µM [cytotoxic, partial curve]"
same,Potency,[7],"inconclusive: 21.3 µM [cytotoxic, partial curve, poor fit]"
same,Potency,[6],"inconclusive: 18.8 µM [cytotoxic, partial curve]"
CCCCC(CC)COCCCN (stereo unspecified),Potency,[3],"inconclusive: 43.2 µM [cytotoxic, partial curve]"
CC(C)COC(=O)COc1cc(Cl)c(Cl)cc1Cl,Potency,[3],inactive
CCCCCc1ccc(Cl)cc1,Potency,[3],"inconclusive: 17.4 µM [cytotoxic, partial curve]"
COC(=O)Nc1nc2ccc(Sc3ccccc3)cc2[nH]1,Potency,[3],active: 871 nM and active: 952 nM
same,Potency,[4],active: 1.74 µM and active: 2.13 µM
same,Potency,[8],inactive
same,Potency,[9],"inconclusive: 21.7 µM [inhibitor, partial curve, poor fit]"
same,Potency,[6],"inconclusive: 48.6 µM [cytotoxic, partial curve]"
same,Potency,[10],"inconclusive: 2.11 µM [cytotoxic, full curve]"
CCO[Si](OCC)(OCC)OCC,Potency,[3],inactive
Cc1ccc(C)cc1,Potency,[3],inactive
c1ccc(COCc2ccccc2)cc1,Potency,[3],inactive
O=C(Nc1ccccc1)Nc1ccccc1,Potency,[3],"inconclusive: 17.5 µM [cytotoxic, full curve]"
same,Potency,[4],"inconclusive: 13.9 µM [cytotoxic, full curve]"
CC1=CC(=O)CC(C)(C)C1(O)/C=C/C(C)=C\C(=O)O (stereo unspecified),Potency,[3],inactive
O=C1CCc2cc(OCCCCc3nnnn3C3CCCCC3)ccc2N1,Potency,[3],"inconclusive: 21.3 µM [cytotoxic, partial curve, poor fit]"
O=c1c(-c2ccc(O)cc2)coc2cc(O)ccc12,Potency,[3],"inconclusive: 19.3 µM [cytotoxic, partial curve] and inconclusive: 24.5 µM [cytotoxic, partial curve]"
same,Potency,[4],"inconclusive: 34.7 µM [cytotoxic, partial curve, poor fit]"
same,Potency,[5],"inconclusive: 54.4 µM [activator, partial curve, poor fit]"
Nc1ccc2c3c(cccc13)-c1ccccc1-2,Potency,[3],active: 24.8 µM
same,Potency,[4],active: 19.7 µM
same,Potency,[8],active: 44.1 µM
same,Potency,[5],active: 39.3 µM
same,Potency,[11],"inconclusive: 27.6 µM [rising, partial curve]"
same,Potency,[12],"inconclusive: 55 µM [rising, partial curve]"
same,Potency,[6],"inconclusive: 8.72 µM [rising, full curve]"
COc1ccc(CCO)cc1,Potency,[3],inactive
OC[C@@H](O)[C@@H](O)CO,Potency,[3],inactive
same,Potency,[4],inactive
CCCCCCCCCCCCCCN(CCO)CCO,Potency,[3],active: 21.9 µM
same,Potency,[4],"inconclusive: 54.9 µM [cytotoxic, single point]"
same,Potency,[8],active: 54.9 µM
same,Potency,[5],active: 54.9 µM
same,Potency,[13],active: 19.3 µM
same,Potency,[14],inconclusive: 68.6 µM [cytotoxic]
CCC(Cl)CC(Cl)C(Cl)C(Cl)C(Cl)C(C)Cl (stereo unspecified),Potency,[3],"inconclusive: 8.46 µM [rising, single point]"
same,Potency,[4],"inconclusive: 8.46 µM [rising, single point]"
same,Potency,[8],"inconclusive: 8.46 µM [activator, single point]"
same,Potency,[15],"inconclusive: 3.75 µM [activator, partial curve]"
CNC(=O)CN(CCN(CCN(CC(=O)[O-])CC(=O)NC)CC(=O)[O-])CC(=O)[O-].O.[Gd+3],Potency,[3],inactive
O=C(O)CN(CCN(CC(=O)O)CC(=O)O)CC(=O)O,"activity change, negative = cytotoxicity",[3],inactive: 5.68% [at 2.72 µM]
CCCCCCCCCCCC(C)=O,Potency,[3],inactive
